In PubChem BioAssay AID902 (National Center for Advancing Translational Sciences (NCATS), 2007):
About 1,900 (1.5%) of roughly 130,000 compounds were called active. Entries that show only a call come without a potency. Inconclusive means that the source gave no clear call. Such entries were picked first, then a sample of the others. Calls come from the whole dose curve; as a rule, active = well fitted cell-killing curve with a large enough effect; inconclusive = small, poorly fitted or top-dose-only effect; inactive = no such curve, though single readings can be large or run the other way. Where the call is inconclusive, the potency comes from a doubtful curve fit.

assay: qHTS Screen for Compounds that Selectively Target Cancer Cells with p53 Mutations: Cytotoxicity of p53ts Cells at the Nonpermissive Temperature; details: H1299-p53A138V viability at 39C, ATP luminescence, 24 h; series mostly up to 46.1 µM; note: nearly all actives have a fitted effect of over 55% in size
Potency is the fitted concentration of half-maximal effect; tags give direction and shape of the fitted curve.

Row | SMILES | Potency
1 | COc1ccc(OC)c(CCNC(=O)c2c(C)oc3ncn(C)c(=O)c23)c1 | inactive
2 | O=C(COC(=O)c1c2c(nc3ccccc13)CCCC2)Nc1ccc2c(c1)OCO2 | inconclusive: 31.6 µM [cytotoxic, single point]
3 | Cc1ccccc1Cn1c(CN2CCC(C(=O)NCCN(C)C)CC2)cc2ccccc21 | inconclusive: 12.6 µM [cytotoxic, single point]
4 | Cc1ccccc1NC(=O)CN1C(=O)C(C)(C)c2ccccc21 | inconclusive: 0.199 µM [cytotoxic, full curve, poor fit]
5 | O=C(N[C@@H](Cc1ccccc1)C(=O)CCl)OCc1ccccc1 | active: 3.16 µM
6 | COc1ccccc1NC(=O)C(=O)NCC(c1ccc2c(c1)OCO2)N1CCN(C)CC1 (stereo not given) | inactive
7 | CCOc1cc2sc(N3CCC(C(=O)Nc4ccc(C)cc4C)CC3)nc2cc1Br | inconclusive: 10 µM [cytotoxic, partial curve]
8 | CCC1=Nc2cc(C(=O)NCCCOC)ccc2Sc2ccc(Br)cc21 | inconclusive: 0.501 µM [cytotoxic, partial curve]
9 | CNC(=O)C1CCC(Cn2c(=O)c3sccc3n(CC(=O)NCc3ccccc3)c2=O)CC1 (stereo not given) | inactive
10 | Cc1ccccc1C(=O)Nc1sc2c(c1C(=O)NCc1ccco1)CCC(C(C)(C)C)C2 (stereo not given) | inactive
11 | CN(C)c1ccc(C(CNC(=O)c2ccccc2)N2CCc3ccccc32)cc1 (stereo not given) | inconclusive: 15.8 µM [cytotoxic, single point]
12 | CCN1CCc2nc3sc(C(=O)Nc4cccc(Cl)c4C)c(N)c3cc2C1 | inconclusive: 7.94 µM [cytotoxic, single point]
13 | CCc1cnc2c(c1SCC(=O)c1ccccc1)c(=O)n(C)c(=O)n2C | inactive
14 | CCOC(=O)c1c(C)c(-c2ccccc2)n(CC(=O)Nc2cc(C)cc(C)c2)c1C | inconclusive: 10 µM [cytotoxic, partial curve]
15 | CCOC(=O)C1CCN(C(=O)Nc2ccc3c(c2)nc(C)n3C)CC1 | inactive
16 | CCCC(=O)Nc1ccc2c(c1)nc1n2CCOC1 | inactive
17 | CN1C[C@@H](C(=O)N[C@]2(C)O[C@]3(O)[C@H]4CCCN4C(=O)[C@H](Cc4ccccc4)N3C2=O)C[C@H]2c3cccc4[nH]cc(c34)C[C@@H]21 | inactive
18 | CCNC(=O)[C@H](C)/C=C/C(NC(=O)OCc1ccccc1)c1ccc(C(=O)OC)cc1 (stereo not given in full) | inactive
19 | CCn1c(SCC(=O)c2cc(OC)ccc2OC)nnc1C(C)C | inactive
20 | C=Cc1ccc(Cn2ccn(-c3ccc(F)c(F)c3)c(=O)c2=O)cc1 | inconclusive: 2 µM [cytotoxic, full curve, poor fit]
